The supplement of paper PMC4967469

How the values were obtained:
Experiment in all cases: Viability of human cancer cell lines after 72 h of drug (GDSC screen)
[1] = compound: C#Cc1cccc(Nc2ncnc3cc(OC)c(OCCCCCCC(=O)NO)cc23)c1 [CUDC-101]; settings: top dose 5.12 µM; top dose inferred
Method: (§1)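 Human cancer cell lines in 384-well plates, medium with 10% serum, drug for 72 h over a 256-fold dose range (nine 2-fold or five 4-fold steps up to the top dose). Adherent lines were fixed and stained with the nucleic acid dye Syto60, suspension lines read with resazurin; signal relative to control wells, capped at 0 and 100%. One two-parameter sigmoid per drug and line, fitted in a mixed model over all curves with the slope shared within a line.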

[2] = compound: CC(C)(C)c1cc(NC(=O)Nc2ccc(-c3cn4c(n3)sc3cc(OCCN5CCOCC5)ccc34)cc2)no1 [AC220]; settings: top dose 1.024 µM; top dose inferred
Method: as §1

[3] = compound: COc1cc(F)c(F)c(Nc2ccc(I)cc2F)c1NS(=O)(=O)C1(C[C@H](O)CO)CC1 [RDEA119]; settings: top dose 5 µM, top dose inferred
Method: as §1

[4] = compound: Fc1cc(-c2ccnc(Nc3ccc(-n4cnc(N5CCOCC5)n4)cc3)n2)cc(N2CCOCC2)c1 [JNK-9L]; settings: top dose 5.12 µM; top dose inferred
Method: as §1

[5] = compound: NCC(=O)Nc1ccc(-n2nc(C(F)(F)F)cc2-c2ccc3c(ccc4ccccc43)c2)cc1 [OSU-03012]; settings: top dose 16 µM; top dose inferred
Method: as §1

[6] = compound: O=c1[nH]cc(F)c(=O)[nH]1 [5-Fluorouracil]; settings: top dose 32 µM; top dose inferred
Method: as §1

[7] = compound: OC[C@H](Cc1ccccc1)Nc1nc(Oc2ccc3c(c2)CCC3)nc2c1ncn2Cc1ccc(-c2ccccc2)cc1 [QS11]; settings: top dose 10.24 µM
Method: as §1

Cell Line	AUC [1]	IC50 [1]	AUC [2]	IC50 [2]	AUC ([3]; screen: GDSC drug entry 1014)	IC50 ([3]; screen: GDSC drug entry 1014)	AUC ([3]; screen: GDSC drug entry 1526)	IC50 ([3]; screen: GDSC drug entry 1526)	AUC [4]	IC50 [4]	AUC [5]	IC50 [5]	AUC [6]	IC50 [6]	AUC [7]	IC50 [7]
CAL-72 (osteosarcoma, adherent)	0.901	> 5120 nM	0.984	> 1020 nM	0.826	3790 nM	0.815	3380 nM	0.974	> 5120 nM	0.869	> 16000 nM	0.984	> 32000 nM	0.922	> 10200 nM
CAL-78 (chondrosarcoma, adherent)	0.884	> 5120 nM	0.985	> 1020 nM	0.95	> 5000 nM	0.94	> 5000 nM	0.841	4340 nM	0.907	> 16000 nM	0.909	> 32000 nM	0.986	> 10200 nM
CAL-85-1 (breast, adherent)	0.718	1610 nM	0.973	> 1020 nM	0.778	2640 nM	0.776	2600 nM	0.539	422 nM	0.491	941 nM	0.75	13100 nM	0.772	5090 nM
CAL-120 (breast, adherent)	0.696	1350 nM	0.974	> 1020 nM	0.846	> 5000 nM	0.893	> 5000 nM	0.725	1710 nM	0.822	13100 nM	0.85	> 32000 nM	0.981	> 10200 nM
CAMA-1 (breast, adherent)	0.586	584 nM	0.98	> 1020 nM			0.978	> 5000 nM	0.921	> 5120 nM	0.701	4290 nM	0.898	> 32000 nM	0.791	5930 nM
CAS-1 (glioma, adherent)	0.754	2320 nM	0.956	> 1020 nM	0.91	> 5000 nM	0.84	> 5000 nM	0.674	1180 nM	0.778	9070 nM	0.982	> 32000 nM	0.965	> 10200 nM
CCF-STTG1 (glioma, adherent)	0.987	> 5120 nM	0.963	> 1020 nM	0.908	> 5000 nM	0.864	4400 nM	0.657	877 nM	0.775	6390 nM	0.987	> 32000 nM	0.943	> 10200 nM
CCK-81 (large intestine, adherent)	0.45	235 nM	0.919	> 1020 nM			0.987	> 5000 nM	0.617	658 nM	0.855	11500 nM	0.706		0.945	> 10200 nM
CESS (acute myeloid leukaemia, suspension)	0.315	106 nM	0.955	> 1020 nM	0.976	> 5000 nM	0.948	> 5000 nM	0.533	389 nM	0.615	1970 nM	0.526	2330 nM	0.89	8880 nM
CGTH-W-1 (thyroid, adherent)	0.657	868 nM	0.869	934 nM	0.726	1360 nM			0.311	94.9 nM	0.716	4080 nM	0.934	> 32000 nM	0.937	> 10200 nM
CHL-1 (melanoma, adherent)	0.318	103 nM	0.986	> 1020 nM	0.623	666 nM	0.824	2760 nM	0.571	496 nM	0.511	1070 nM	0.926	> 32000 nM	0.864	8120 nM
CHP-126 (neuroblastoma, suspension)	0.738	1560 nM	0.98	> 1020 nM	0.986	> 5000 nM	0.985	> 5000 nM	0.628	729 nM	0.756	5590 nM	0.461	1560 nM	0.836	7040 nM
CHP-212 (neuroblastoma, adherent)	0.312	100 nM	0.985	> 1020 nM	0.122	22.1 nM			0.494	309 nM	0.779	6000 nM	0.76	10500 nM	0.923	> 10200 nM
CHSA0011 (chondrosarcoma, adherent)	0.852	> 5120 nM	0.954	> 1020 nM	0.786	3160 nM	0.687	1300 nM	0.878	> 5120 nM	0.98	> 16000 nM	0.96	> 32000 nM	0.98	> 10200 nM
CHSA0108 (chondrosarcoma, adherent)	0.38	142 nM	0.982	> 1020 nM	0.847	4560 nM	0.761	2040 nM	0.549	445 nM	0.888	> 16000 nM	0.982	> 32000 nM	0.966	> 10200 nM

By IC50 is meant the dose at which the fit gives 50% viability; a limit (>, <) means that the fit lies beyond the doses tested. For AUC the same curve is integrated over the 256-fold range of doses and scaled to a fraction: 1 means no effect, lower means more sensitive. For part of these data: A top dose marked as inferred comes from the curve model; the source does not state it. For part of these data: Drugs with an entry number were screened twice under separate entries, and the two screens often disagree.
